Experimental findings from PubChem BioAssay AID2326 (National Center for Advancing Translational Sciences (NCATS), 2010) are described below.

SMILES strings stand for the structures. About 1,100 (0.41%) of roughly 270,000 compounds were called active. About 3% were inconclusive and are not listed. The call rests on the fitted dose curve. The list shows a part of the results, in another mix than the full data. Entries without a call were filed so in the source.
Potency means the concentration at half of the fitted maximal effect.

The assay can be described thus: qHTS Assay for Inhibitors of Influenza NS1 Protein Function. Further: actives are rising curves; nearly all actives have a fitted effect of over 50% in size. The note with it: activity, positive = more growth: at 46.1 µM (top of the series). The text has this: NIH Chemical Genomics Center [NCGC]
NIH Molecular Libraries Probe Centers Network [MLPCN]
Assay Submitter (PI): Daniel Engel
Influenza is a world-wide public health problem and emerging forms of the virus have the potential to cause a pandemic of equal or greater magnitude to the outbreaks recorded in 1918, 1957 or 1968. Vaccine development is proceeding and there also exist two classes of anti-influenza compounds. However these therapeutic modalities are neither fully effective nor widely enough available to fulfill global needs. In addition their potential usefulness against newly emergent strains is not known. Efforts are needed to develop novel agents against influenza virus, including broad-spectrum agents. Identification of small molecules that inhibit NS1 function either directly or by interfering with specific cellular pathways may be a key to increasing our defense against the virus.
We have miniaturized and optimized a cell based assay in which NS1 from influenza A is expressed in the budding yeast S. cerevisiae. NS1 is a multi-functional protein that counters the host innate immune response and facilitates viral versus cellular gene expression. Expression of NS1 causes a pronounced slow growth phenotype in yeast due to its intrinsic molecular activities. Small molecules that suppress the slow growth phenotype can be identified by a straightforward growth recovery assay using optical density (OD) as the measurement. The same yeast strain not expressing NS1 was used as positive control in the yeast growth recovery assay.
The yeast S. cerevisiae control and NS1 expressing cells were kindly supplied by laboratory of Dr. Daniel Engel, University of Virginia. Yeast starter cultures were stored in single use aliquots at -80C.
1. Yeast culture medium per liter: 1.2 g Yeast Nitrogen Base (w/out amino acids and Ammonium Sulphate), 5.0g Ammonium Sulphate, 0.77g -URA DO (drop-out) Supplement, adjust pH to 6.0. Adjust to 2% glucose prior to inoculating with yeast.
2. Yeast assay medium: 1.2 g Yeast Nitrogen Base (w/out amino acids and Ammonium Sulphate), 5.0g Ammonium Sulphate, 0.77g -URA DO (drop-out) Supplement, adjust pH to 6.0. Adjust to 2% D-galactose prior to inoculating with yeast.
1. Inoculate 100 mls of yeast culture medium with 1 ml of frozen yeast aliquote. Incubate overnight at 30C, 250RPM.
2. Harvest overnight culture at 4000 RPM and wash pellet with 15 mls H2O 3x.
3. Re-suspend washed pellet in 10 mls of yeast assay medium.
4. Prepare a 1:100 dilution of re-suspended culture in yeast assay medium.
5. Dispense 3.5 ul per well of reagents in step 4 in columns 2-48 in a black clear bottom 1536 well plate.
6. Dispense 3.5 ul per well of yeast assay medium in column 1 only.
7. Transfer 23 nl of compound per well.
8. Dispense 3.5 ul per well of yeast assay medium in columns 1-48.
9. Read plate using Viewlux protocol for optical density 600 (OD600) using excitation filter 600nm.
(In general: Quantitative high-throughput screening tests each substance at several concentrations.)
Turning to `c1ccc(CCc2nn3c(C4COc5ccccc5O4)nnc3s2)cc1` (stereo not drawn), the activity, positive = more growth was -35.6%. The same measure, in the same setting: with `CCCc1nc(SCC(=O)N2CCN(c3ccccc3)CC2)c2c(=O)n(C)c(=O)n(C)c2n1` the figure was -51.9%; with `Cc1cc(C2=NNC(=NC3CCCCC3)SC2)c(C)n1-c1c(C)n(C)n(-c2ccccc2)c1=O`, 31.1%; with `C=CCn1c(-c2cccc(Cl)c2)n[nH]c1=S`, inactive: -40.7%. In the case of `Cc1ccc(N2CCOCC2)c2c1C(=O)c1ccccc1C2=O`, the activity, positive = more growth was -34.1%. Same read-out and setting: for `CCOC(=O)c1ccc(NC(=O)N2CCN(c3ccccn3)CC2)cc1` the value was -56.7%; for `Cn1c(=O)c2c(nc(CN3CCN(c4ccccc4F)CC3)n2CCCc2ccccc2)n(C)c1=O`, -139%; for `CCN(CC)N=Nc1ccc(S(=O)(=O)Nc2nc(C)cc(C)n2)cc1`, -43%. The same measure, in the same setting: with `COc1ccc(NS(=O)(=O)c2ccc3oc4ccccc4c3c2)cn1` the figure was -52%; with `O=C1c2[nH]nc(-c3ccccc3O)c2C(c2ccccc2F)N1Cc1ccco1` (stereo not drawn), -196%; with `O=[N+]([O-])c1cc(Oc2cccnc2)cc([N+](=O)[O-])c1`, -39.2%. Still for that read-out and setting: with `COc1ccc(-c2[nH]c(-c3cccc(OC)c3)nc2SCC(=O)NC2CCCC2)cc1` the figure was -55.9%; with `O=C(CNC1CCCCCC1)Nc1ccccc1N1CCCCC1`, inactive: -37.3%; with `Cc1ccccc1NC(=S)NCCc1ccccc1`, -41.1%. As to `Cc1ccc(SCC(=O)OCC(=O)NC(C)c2ccc(Br)cc2)cc1` (stereo not drawn), the activity, positive = more growth is -40%. Regarding `COc1ccc(C(=O)Nc2nc3c(s2)CCCC3)cc1S(=O)(=O)N1CCCc2ccccc21`, the Potency is active: 12.6 µM.

For the compound `CC(C)C(=O)N1CCC(CN=Cc2c(O)n(C3CCCCC3)c(=O)n(C3CCCCC3)c2=O)CC1`, the activity, positive = more growth is -57.7%.

Take `CC(C)(C)NC(=S)Nc1ccc(Br)cc1`: the “activity, positive = more growth” value is inactive: -52.7%.

Regarding `O=C1c2[nH]nc(-c3ccccc3O)c2C(c2cccc(Cl)c2)N1Cc1ccco1` (stereo not drawn), the activity, positive = more growth was -68%. Turning to `c1cncc(-c2nc3cc4ccccc4cc3[nH]2)c1`, the “activity, positive = more growth” value is inactive: -75.2%. In the case of `Brc1ccc(-c2cn3nc4c(nc3n2)CCCC4)cc1`, the “activity, positive = more growth” value was inactive: -23.9%. Take `Cc1ccc(C)c(N2CCN(C(=O)Cc3ccc(-n4c(=O)[nH]c5ccsc5c4=O)cc3)CC2)c1`: the activity, positive = more growth was 39.2%. Same read-out and setting: for `CCc1ccc(CCC(=O)Nc2ccc(C)c(C)c2)o1` the value was inactive: -61.2%.

Turning to `Cc1ccc(N(CC(=O)Nc2cc(C)cc(C)c2)S(=O)(=O)c2c(C)noc2C)cc1`, the activity, positive = more growth was determined as 32.1%.

Consider `O=C(NC(=S)Nc1sc2c(c1C(=O)O)CCCC2)c1ccccc1`, for which the “activity, positive = more growth” value was inactive: -38.6%. Same read-out and setting: with `Cc1cc(O)c(-c2cc(C(=O)Nc3ccc(S(=O)(=O)N4CCOCC4)cc3)[nH]n2)cc1C` the figure was inactive: -35.8%. Same read-out and setting: with `O=C(NCc1ccco1)C1CCN(c2nc3ccccc3n2Cc2ccccc2F)CC1` the figure was inactive: -64.8%. The same measure, in the same setting: with `COc1ccc(C2C(C#N)=C(N)N(c3cccnc3)C3=C2C(=O)CC(C)(C)C3)cc1OC` (stereo not drawn) the figure was 42.8%; with `COc1ccc(-c2nc(-c3ccc4c(c3)OCO4)[nH]c2-c2ccc(OC)cc2)cc1`, -31%.

On to `COc1ccc(-c2nn(-c3ccccc3)cc2/C=C2/SC(=S)N(CCC(=O)O)C2=O)c(C)c1`, for which the Potency is active: 11.2 µM. `COc1ccc(/C(O)=C2/C(=O)C(=O)N(CCCN(C)C)C2c2ccc(C)o2)cc1Cl` (stereo not drawn): the “activity, positive = more growth” value is inactive: -61.9%. For the compound `Cc1ccc(NC(=O)c2cnn(-c3ccccc3)c2C)cc1`, the “activity, positive = more growth” value was inactive: -44.5%. Still for that read-out and setting: with `CC(C)OCCCN1C(=O)c2[nH]nc(-c3ccccc3O)c2C1c1cccc(Cl)c1` (stereo not drawn) the figure was -86.3%. The same measure, in the same setting: with `CCN(Cc1ccccc1)C(=S)NC(=O)c1ccccc1Br` the figure was inactive: -52.8%; with `CCOC(=O)C1(Cc2cccc(Cl)c2)CCCN(C(=O)C(C)(C)C)C1` (stereo not drawn), -39.9%; with `COc1ccc2nc3c(cc2c1)c(NC(=O)c1cccs1)nn3CC(C)C`, -137%. In the case of `COc1cc(SC)ccc1C(=O)Nc1cccc(C2OCCCO2)c1`, the activity, positive = more growth is -33.7%. Still for that read-out and setting: for `C=CCNC(=O)/C(C#N)=C/c1c(C)nn(-c2ccccc2)c1Cl` the value was -47.1%; for `CC(C)(C)OC(=O)N1CCC[C@H]1c1nnc(SCc2ccc(Cl)cc2Cl)o1`, -134%. Same read-out and setting: with `Cc1cc(-c2ccc(C)c(S(=O)(=O)NCc3cccc(Br)c3)c2)on1` the figure was -34.4%. Still for that read-out and setting: for `CCn1cc(C(=O)O)c(=O)c2cc(F)c(N/N=C/c3ccccc3)cc21` the value was 25.7%; for `COc1ccc(S(=O)(=O)NCC(c2cccnc2)N2CCN(c3ccccc3)CC2)cc1C` (stereo not drawn), inactive: -64.5%.

In the case of `COc1ccc(C2c3c(-c4ccccc4O)n[nH]c3C(=O)N2CCc2ccc(OC)c(OC)c2)cc1` (stereo not drawn), the activity, positive = more growth was -76.4%.

For `O=C(Nc1ccc(Cl)cc1)Nc1cc([N+](=O)[O-])ccc1F`, the “activity, positive = more growth” value was inactive: -31.2%. Consider `COc1ccc(-c2cc(C(F)F)nc(-n3nc(C)cc3C)n2)cc1`, for which the “activity, positive = more growth” value was inactive: -49.7%. On the same count and under the same terms, for `OCc1ccccc1OCCOc1ccc(Cl)c2cccnc12` the value was -40.1%. Same read-out and setting: with `Oc1c(Cl)cc(Cl)cc1CNc1nccs1` the figure was inactive: -47.8%. Consider `C=CCn1c(SCc2ccccc2)nc(O)cc1=O`, for which the Potency was active: 6.31 µM.
